Numbering of substitutions follows the chain as printed; changes in the protein carry UniProt numbers. This is one part of the list.
T1: RBFOX1 RRM (Homo sapiens, UniProt Q9NWB1 109-208)
T1 sequence: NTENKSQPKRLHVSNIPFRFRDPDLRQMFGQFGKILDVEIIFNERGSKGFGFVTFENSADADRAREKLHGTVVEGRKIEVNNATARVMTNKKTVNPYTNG

B1: AAAACCC (DNA:RNA)
RNA: GGGAGACCGGAAUUCAGAUUGUCCAAAACCCUUAAAUCCCGUCGUAGCCACCA
DNA 1: CAATCTGAATTCCGGTCTCCC
DNA 2: TGGTGGCTACGACGGGATT
B2: UCCUGCC (DNA:RNA)
RNA: B1 RNA with A25U, A26C, A27C, A28U, C29G
DNA 1: CAATCTGAATTCCGGTCTCCC
DNA 2: TGGTGGCTACGACGGGATT
B3: AGUCCCG (DNA:RNA)
RNA: B1 RNA with A26G, A27U, A28C, C31G
DNA 1: CAATCTGAATTCCGGTCTCCC
DNA 2: TGGTGGCTACGACGGGATT
B4: GCAACAU (DNA:RNA)
RNA: B1 RNA with A25G, A26C, C30A, C31U
DNA 1: CAATCTGAATTCCGGTCTCCC
DNA 2: TGGTGGCTACGACGGGATT
B5: CAUAGUA (DNA:RNA)
RNA: B1 RNA with A25C, A27U, C29G, C30U, C31A
DNA 1: CAATCTGAATTCCGGTCTCCC
DNA 2: TGGTGGCTACGACGGGATT
B6: CCAACGC (DNA:RNA)
RNA: B1 RNA with A25C, A26C, C30G
DNA 1: CAATCTGAATTCCGGTCTCCC
DNA 2: TGGTGGCTACGACGGGATT
B7: UGACACU (DNA:RNA)
RNA: B1 RNA with A25U, A26G, A28C, C29A, C31U
DNA 1: CAATCTGAATTCCGGTCTCCC
DNA 2: TGGTGGCTACGACGGGATT
B8: GCUCACC (DNA:RNA)
RNA: B1 RNA with A25G, A26C, A27U, A28C, C29A
DNA 1: CAATCTGAATTCCGGTCTCCC
DNA 2: TGGTGGCTACGACGGGATT
B9: UUUACGA (DNA:RNA)
RNA: B1 RNA with A25U, A26U, A27U, C30G, C31A
DNA 1: CAATCTGAATTCCGGTCTCCC
DNA 2: TGGTGGCTACGACGGGATT
B10: AUGCCCG (DNA:RNA)
RNA: B1 RNA with A26U, A27G, A28C, C31G
DNA 1: CAATCTGAATTCCGGTCTCCC
DNA 2: TGGTGGCTACGACGGGATT
B11: AUUUCCG (DNA:RNA)
RNA: B1 RNA with A26U, A27U, A28U, C31G
DNA 1: CAATCTGAATTCCGGTCTCCC
DNA 2: TGGTGGCTACGACGGGATT
B12: CCACAAA (DNA:RNA)
RNA: B1 RNA with A25C, A26C, A28C, C29A, C30A, C31A
DNA 1: CAATCTGAATTCCGGTCTCCC
DNA 2: TGGTGGCTACGACGGGATT
B13: CUCCUAC (DNA:RNA)
RNA: B1 RNA with A25C, A26U, A27C, A28C, C29U, C30A
DNA 1: CAATCTGAATTCCGGTCTCCC
DNA 2: TGGTGGCTACGACGGGATT
B14: UCGUAAA (DNA:RNA)
RNA: GGGAGACCGGAAUUCAGAUUGUCCUCGUAAAUUAAAUCCCGUCGUAGCCACCA
DNA 1: CAATCTGAATTCCGGTCTCCC
DNA 2: TGGTGGCTACGACGGGATT
B15: ACUCAUU (DNA:RNA)
RNA: B14 RNA with U25A, G27U, U28C, A30U, A31U
DNA 1: CAATCTGAATTCCGGTCTCCC
DNA 2: TGGTGGCTACGACGGGATT
B16: GAUAGAG (DNA:RNA)
RNA: B1 RNA with A25G, A27U, C29G, C30A, C31G
DNA 1: CAATCTGAATTCCGGTCTCCC
DNA 2: TGGTGGCTACGACGGGATT
B17: UCUAUUA (DNA:RNA)
RNA: B14 RNA with G27U, U28A, A29U, A30U
DNA 1: CAATCTGAATTCCGGTCTCCC
DNA 2: TGGTGGCTACGACGGGATT
B18: UUCCACA (DNA:RNA)
RNA: B14 RNA with C26U, G27C, U28C, A30C
DNA 1: CAATCTGAATTCCGGTCTCCC
DNA 2: TGGTGGCTACGACGGGATT
B19: GUCCAUC (DNA:RNA)
RNA: B1 RNA with A25G, A26U, A27C, A28C, C29A, C30U
DNA 1: CAATCTGAATTCCGGTCTCCC
DNA 2: TGGTGGCTACGACGGGATT
B20: GCACGAA (DNA:RNA)
RNA: B14 RNA with U25G, G27A, U28C, A29G
DNA 1: CAATCTGAATTCCGGTCTCCC
DNA 2: TGGTGGCTACGACGGGATT

Target: T1, RBFOX1 RRM
Assay: EMSA; HiTS-Eq, 1 nM pool, 10 min; buffer printed only for the single-RNA assays: 10 mM Tris pH 7.5, 150 mM NaCl, 3.4 mM EDTA, 0.001% NP-40, 30 C
Settings: tags: His6 N-terminal (pET28a); label: 5' 32P
Procedure, shortened: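 Purified wild-type or mutant RbFox RRM at increasing concentrations was equilibrated with 1 nM of 5′-radiolabelled RNA carrying 7 randomized nucleotides for 10 min in 50 µL. Unbound RNA was separated by 8% native PAGE and sequenced. Relative association constants came from read-count changes of each RNA species compared with the control reaction, normalised to the cognate motif.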

Binder | binding signal
B1 | 0.000781 KA relative to UGCAUGU
B2 | 0.0121 KA relative to UGCAUGU
B3 | 0.00745 KA relative to UGCAUGU
B4 | 0.00634 KA relative to UGCAUGU
B5 | 0.00289 KA relative to UGCAUGU
B6 | 0.00224 KA relative to UGCAUGU
B7 | 0.0103 KA relative to UGCAUGU
B8 | 0.00471 KA relative to UGCAUGU
B9 | 0.011 KA relative to UGCAUGU
B10 | 0.0102 KA relative to UGCAUGU
B11 | 0.00787 KA relative to UGCAUGU
B12 | 0.00309 KA relative to UGCAUGU
B13 | 0.00447 KA relative to UGCAUGU
B14 | 0.00527 KA relative to UGCAUGU
B15 | 0.00186 KA relative to UGCAUGU
B16 | 0.0144 KA relative to UGCAUGU
B17 | 0.00279 KA relative to UGCAUGU
B18 | 0.00262 KA relative to UGCAUGU
B19 | 0.00868 KA relative to UGCAUGU
B20 | 0.0197 KA relative to UGCAUGU
